Laboratory results: the supplement of paper PMC12230231
± gives the standard deviation of the averaged measurements. Restriction of a single-cycle SIVsab GFP reporter by TRIM5α v1-loop variants in CRFK cells. Human variants: read share among cells still uninfected after two challenges over input, higher = gained restriction. Rhesus variants: share among infected cells over input, higher = lost restriction. Reporter dose not given per row. No active / inactive call per row; the paper calls a change when both replicates lie above its controls (mean + 2 SD of stop or wild-type variants, or the top frameshift score). Residues outside the varied loop are taken from Swiss-Prot. The paper reads the human single-substitution scores as noise; they and the rhesus combinations repeat poorly (rank correlation 0.3 to 0.4), indel scores repeat only for the top variants, rhesus substitutions well (0.9).

tested on: SIVsab (simian immunodeficiency virus of sabaeus monkeys), single-cycle GFP reporter, in CRFK cells; assay: enrichment among infected cells over input (fold); higher = weaker restriction; conditions: library: human / rhesus combinations
Protocol: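 Pools of CRFK cells expressing variants of the TRIM5α v1 loop were challenged with the single-cycle reporter, sorted by GFP and sequenced; mean of two replicates.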

Sequence	enrichment
MASGILLNVKEEVTCPICLELLTEPLSLHCGHSFCQACITANHKKSMLYKEGERSCPVCRISYQPENIQPNRHVANIVEKLREVKLSPEEGQKVDHCARHGEKLLLFCQEDSKVICWLCERSQEHRGHHTFLMEEVAQEYHVKLQTALEMLRQKQQEAEKLEADIREEKASWKIQIDYDKTNVSADFEQLREILDWEESNELQNLEKEEEDILKSLTKSETEMVQQTQYMRELISELEHRLQGSMMDLLQGVDGIIKRIENMTLKKPKTFHKNQRRVFRAPDLKGMLDMFRELTDARRYWVDVTLAPNNISHAVIAEDKRQVSSRNPQIMYGARGTRYQSLTNFNYCTGVLGSQSITSGKHYWEVDVSKKSAWILGVCAGFQSDAMYNIEQNENYQPKYGYWVIGLQEGVKYSVFQDGSSHTPFAPFIVPLSVIICPDRVGVFVDYEACTVSFFNITNHGFLIYKFSQCSFSKPVFPYLNPRKCTVPMTLCSPSS [rhesus TRIM5α, 332-344 = GARGTRYQSLT]	0.316 ± 0.095
MASGILLNVKEEVTCPICLELLTEPLSLHCGHSFCQACITANHKKSMLYKEGERSCPVCRISYQPENIQPNRHVANIVEKLREVKLSPEEGQKVDHCARHGEKLLLFCQEDSKVICWLCERSQEHRGHHTFLMEEVAQEYHVKLQTALEMLRQKQQEAEKLEADIREEKASWKIQIDYDKTNVSADFEQLREILDWEESNELQNLEKEEEDILKSLTKSETEMVQQTQYMRELISELEHRLQGSMMDLLQGVDGIIKRIENMTLKKPKTFHKNQRRVFRAPDLKGMLDMFRELTDARRYWVDVTLAPNNISHAVIAEDKRQVSSRNPQIMYQAPGTRFTFQSFTNFNYCTGVLGSQSITSGKHYWEVDVSKKSAWILGVCAGFQSDAMYNIEQNENYQPKYGYWVIGLQEGVKYSVFQDGSSHTPFAPFIVPLSVIICPDRVGVFVDYEACTVSFFNITNHGFLIYKFSQCSFSKPVFPYLNPRKCTVPMTLCSPSS [rhesus TRIM5α, 332-344 = QAPGTRFTFQSFT]	1.12 ± 0.57
MASGILLNVKEEVTCPICLELLTEPLSLHCGHSFCQACITANHKKSMLYKEGERSCPVCRISYQPENIQPNRHVANIVEKLREVKLSPEEGQKVDHCARHGEKLLLFCQEDSKVICWLCERSQEHRGHHTFLMEEVAQEYHVKLQTALEMLRQKQQEAEKLEADIREEKASWKIQIDYDKTNVSADFEQLREILDWEESNELQNLEKEEEDILKSLTKSETEMVQQTQYMRELISELEHRLQGSMMDLLQGVDGIIKRIENMTLKKPKTFHKNQRRVFRAPDLKGMLDMFRELTDARRYWVDVTLAPNNISHAVIAEDKRQVSSRNPQIMYGAPGTRYQSLTNFNYCTGVLGSQSITSGKHYWEVDVSKKSAWILGVCAGFQSDAMYNIEQNENYQPKYGYWVIGLQEGVKYSVFQDGSSHTPFAPFIVPLSVIICPDRVGVFVDYEACTVSFFNITNHGFLIYKFSQCSFSKPVFPYLNPRKCTVPMTLCSPSS [rhesus TRIM5α, 332-344 = GAPGTRYQSLT]	0.777 ± 0.25
MASGILLNVKEEVTCPICLELLTEPLSLHCGHSFCQACITANHKKSMLYKEGERSCPVCRISYQPENIQPNRHVANIVEKLREVKLSPEEGQKVDHCARHGEKLLLFCQEDSKVICWLCERSQEHRGHHTFLMEEVAQEYHVKLQTALEMLRQKQQEAEKLEADIREEKASWKIQIDYDKTNVSADFEQLREILDWEESNELQNLEKEEEDILKSLTKSETEMVQQTQYMRELISELEHRLQGSMMDLLQGVDGIIKRIENMTLKKPKTFHKNQRRVFRAPDLKGMLDMFRELTDARRYWVDVTLAPNNISHAVIAEDKRQVSSRNPQIMYGAPGTRYTFPSLTNFNYCTGVLGSQSITSGKHYWEVDVSKKSAWILGVCAGFQSDAMYNIEQNENYQPKYGYWVIGLQEGVKYSVFQDGSSHTPFAPFIVPLSVIICPDRVGVFVDYEACTVSFFNITNHGFLIYKFSQCSFSKPVFPYLNPRKCTVPMTLCSPSS [rhesus TRIM5α, 332-344 = GAPGTRYTFPSLT]	1.38 ± 0.081
MASGILLNVKEEVTCPICLELLTEPLSLHCGHSFCQACITANHKKSMLYKEGERSCPVCRISYQPENIQPNRHVANIVEKLREVKLSPEEGQKVDHCARHGEKLLLFCQEDSKVICWLCERSQEHRGHHTFLMEEVAQEYHVKLQTALEMLRQKQQEAEKLEADIREEKASWKIQIDYDKTNVSADFEQLREILDWEESNELQNLEKEEEDILKSLTKSETEMVQQTQYMRELISELEHRLQGSMMDLLQGVDGIIKRIENMTLKKPKTFHKNQRRVFRAPDLKGMLDMFRELTDARRYWVDVTLAPNNISHAVIAEDKRQVSSRNPQIMYGARGTLYTFPTFTNFNYCTGVLGSQSITSGKHYWEVDVSKKSAWILGVCAGFQSDAMYNIEQNENYQPKYGYWVIGLQEGVKYSVFQDGSSHTPFAPFIVPLSVIICPDRVGVFVDYEACTVSFFNITNHGFLIYKFSQCSFSKPVFPYLNPRKCTVPMTLCSPSS [rhesus TRIM5α, 332-344 = GARGTLYTFPTFT]	1.73 ± 1.5
MASGILLNVKEEVTCPICLELLTEPLSLHCGHSFCQACITANHKKSMLYKEGERSCPVCRISYQPENIQPNRHVANIVEKLREVKLSPEEGQKVDHCARHGEKLLLFCQEDSKVICWLCERSQEHRGHHTFLMEEVAQEYHVKLQTALEMLRQKQQEAEKLEADIREEKASWKIQIDYDKTNVSADFEQLREILDWEESNELQNLEKEEEDILKSLTKSETEMVQQTQYMRELISELEHRLQGSMMDLLQGVDGIIKRIENMTLKKPKTFHKNQRRVFRAPDLKGMLDMFRELTDARRYWVDVTLAPNNISHAVIAEDKRQVSSRNPQIMYGAPGTRFPSLTNFNYCTGVLGSQSITSGKHYWEVDVSKKSAWILGVCAGFQSDAMYNIEQNENYQPKYGYWVIGLQEGVKYSVFQDGSSHTPFAPFIVPLSVIICPDRVGVFVDYEACTVSFFNITNHGFLIYKFSQCSFSKPVFPYLNPRKCTVPMTLCSPSS [rhesus TRIM5α, 332-344 = GAPGTRFPSLT]	0.639 ± 0.56
MASGILLNVKEEVTCPICLELLTEPLSLHCGHSFCQACITANHKKSMLYKEGERSCPVCRISYQPENIQPNRHVANIVEKLREVKLSPEEGQKVDHCARHGEKLLLFCQEDSKVICWLCERSQEHRGHHTFLMEEVAQEYHVKLQTALEMLRQKQQEAEKLEADIREEKASWKIQIDYDKTNVSADFEQLREILDWEESNELQNLEKEEEDILKSLTKSETEMVQQTQYMRELISELEHRLQGSMMDLLQGVDGIIKRIENMTLKKPKTFHKNQRRVFRAPDLKGMLDMFRELTDARRYWVDVTLAPNNISHAVIAEDKRQVSSRNPQIMYGARGTRFTFQTLVNFNYCTGVLGSQSITSGKHYWEVDVSKKSAWILGVCAGFQSDAMYNIEQNENYQPKYGYWVIGLQEGVKYSVFQDGSSHTPFAPFIVPLSVIICPDRVGVFVDYEACTVSFFNITNHGFLIYKFSQCSFSKPVFPYLNPRKCTVPMTLCSPSS [rhesus TRIM5α, 332-344 = GARGTRFTFQTLV]	1.07 ± 0.46
MASGILLNVKEEVTCPICLELLTEPLSLHCGHSFCQACITANHKKSMLYKEGERSCPVCRISYQPENIQPNRHVANIVEKLREVKLSPEEGQKVDHCARHGEKLLLFCQEDSKVICWLCERSQEHRGHHTFLMEEVAQEYHVKLQTALEMLRQKQQEAEKLEADIREEKASWKIQIDYDKTNVSADFEQLREILDWEESNELQNLEKEEEDILKSLTKSETEMVQQTQYMRELISELEHRLQGSMMDLLQGVDGIIKRIENMTLKKPKTFHKNQRRVFRAPDLKGMLDMFRELTDARRYWVDVTLAPNNISHAVIAEDKRQVSSRNPQIMYQARGTLFPSLTNFNYCTGVLGSQSITSGKHYWEVDVSKKSAWILGVCAGFQSDAMYNIEQNENYQPKYGYWVIGLQEGVKYSVFQDGSSHTPFAPFIVPLSVIICPDRVGVFVDYEACTVSFFNITNHGFLIYKFSQCSFSKPVFPYLNPRKCTVPMTLCSPSS [rhesus TRIM5α, 332-344 = QARGTLFPSLT]	1.87 ± 1.6
